# No constants are given. Whether binding was seen depends on the method and setting. In cells and extracts the contact can be indirect. Some results given as binding are weak or reduced against the parent protein; the word gives no strength.
# By UniProt entry, the sequences of proteins in these tests, tags left out. Where a name states a change or a piece, a line headed by the entry shows the natural chain unless it says otherwise. Residues count along the entry.
# UniProt P27801: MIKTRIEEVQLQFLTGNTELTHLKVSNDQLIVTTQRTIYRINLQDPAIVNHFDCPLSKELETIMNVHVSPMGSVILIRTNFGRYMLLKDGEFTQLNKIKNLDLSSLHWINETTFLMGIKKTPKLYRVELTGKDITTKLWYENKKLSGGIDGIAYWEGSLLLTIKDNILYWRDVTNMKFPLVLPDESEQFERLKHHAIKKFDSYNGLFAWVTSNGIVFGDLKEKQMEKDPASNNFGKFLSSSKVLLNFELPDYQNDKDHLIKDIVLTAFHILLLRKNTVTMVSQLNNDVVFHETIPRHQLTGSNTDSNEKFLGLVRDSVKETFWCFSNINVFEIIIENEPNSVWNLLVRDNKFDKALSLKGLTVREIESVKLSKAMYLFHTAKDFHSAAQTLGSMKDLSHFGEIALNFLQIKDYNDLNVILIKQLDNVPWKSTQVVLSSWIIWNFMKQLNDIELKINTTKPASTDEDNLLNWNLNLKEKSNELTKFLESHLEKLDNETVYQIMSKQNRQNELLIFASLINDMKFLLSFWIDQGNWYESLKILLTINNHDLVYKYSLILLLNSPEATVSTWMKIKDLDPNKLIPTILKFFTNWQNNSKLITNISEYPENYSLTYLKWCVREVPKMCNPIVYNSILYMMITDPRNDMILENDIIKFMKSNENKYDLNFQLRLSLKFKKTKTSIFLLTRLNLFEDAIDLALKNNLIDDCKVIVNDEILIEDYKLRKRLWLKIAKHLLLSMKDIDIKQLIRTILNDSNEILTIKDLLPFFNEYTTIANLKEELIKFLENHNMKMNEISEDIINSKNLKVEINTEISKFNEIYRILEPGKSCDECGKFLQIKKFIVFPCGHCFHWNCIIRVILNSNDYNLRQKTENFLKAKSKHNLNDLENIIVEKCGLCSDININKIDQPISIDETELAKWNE
# UniProt P12868: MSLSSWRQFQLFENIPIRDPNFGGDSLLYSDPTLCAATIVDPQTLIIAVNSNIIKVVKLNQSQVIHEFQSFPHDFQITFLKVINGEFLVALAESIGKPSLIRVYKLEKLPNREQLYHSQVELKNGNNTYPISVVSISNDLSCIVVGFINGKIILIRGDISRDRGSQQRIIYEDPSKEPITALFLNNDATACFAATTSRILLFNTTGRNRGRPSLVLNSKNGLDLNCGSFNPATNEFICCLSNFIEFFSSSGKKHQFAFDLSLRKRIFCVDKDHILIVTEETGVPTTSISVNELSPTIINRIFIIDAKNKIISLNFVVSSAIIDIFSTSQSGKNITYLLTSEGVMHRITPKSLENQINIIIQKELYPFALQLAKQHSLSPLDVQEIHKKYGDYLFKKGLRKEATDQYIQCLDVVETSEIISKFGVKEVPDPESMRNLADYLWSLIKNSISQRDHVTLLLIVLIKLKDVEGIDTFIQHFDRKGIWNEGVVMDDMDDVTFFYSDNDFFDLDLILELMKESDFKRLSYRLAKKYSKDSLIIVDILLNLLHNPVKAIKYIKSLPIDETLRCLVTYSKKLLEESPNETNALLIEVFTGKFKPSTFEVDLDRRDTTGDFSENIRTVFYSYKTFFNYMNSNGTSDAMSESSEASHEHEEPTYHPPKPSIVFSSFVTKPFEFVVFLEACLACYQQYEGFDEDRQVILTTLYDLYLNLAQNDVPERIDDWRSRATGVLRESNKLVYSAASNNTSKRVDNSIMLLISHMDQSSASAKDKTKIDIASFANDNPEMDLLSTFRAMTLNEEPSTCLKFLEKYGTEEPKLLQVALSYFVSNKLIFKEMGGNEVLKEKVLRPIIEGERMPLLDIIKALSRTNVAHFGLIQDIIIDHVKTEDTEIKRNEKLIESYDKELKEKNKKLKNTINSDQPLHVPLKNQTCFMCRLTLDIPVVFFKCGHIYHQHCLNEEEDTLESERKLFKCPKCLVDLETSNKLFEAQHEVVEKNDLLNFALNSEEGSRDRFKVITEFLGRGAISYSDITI
# UniProt Q03308: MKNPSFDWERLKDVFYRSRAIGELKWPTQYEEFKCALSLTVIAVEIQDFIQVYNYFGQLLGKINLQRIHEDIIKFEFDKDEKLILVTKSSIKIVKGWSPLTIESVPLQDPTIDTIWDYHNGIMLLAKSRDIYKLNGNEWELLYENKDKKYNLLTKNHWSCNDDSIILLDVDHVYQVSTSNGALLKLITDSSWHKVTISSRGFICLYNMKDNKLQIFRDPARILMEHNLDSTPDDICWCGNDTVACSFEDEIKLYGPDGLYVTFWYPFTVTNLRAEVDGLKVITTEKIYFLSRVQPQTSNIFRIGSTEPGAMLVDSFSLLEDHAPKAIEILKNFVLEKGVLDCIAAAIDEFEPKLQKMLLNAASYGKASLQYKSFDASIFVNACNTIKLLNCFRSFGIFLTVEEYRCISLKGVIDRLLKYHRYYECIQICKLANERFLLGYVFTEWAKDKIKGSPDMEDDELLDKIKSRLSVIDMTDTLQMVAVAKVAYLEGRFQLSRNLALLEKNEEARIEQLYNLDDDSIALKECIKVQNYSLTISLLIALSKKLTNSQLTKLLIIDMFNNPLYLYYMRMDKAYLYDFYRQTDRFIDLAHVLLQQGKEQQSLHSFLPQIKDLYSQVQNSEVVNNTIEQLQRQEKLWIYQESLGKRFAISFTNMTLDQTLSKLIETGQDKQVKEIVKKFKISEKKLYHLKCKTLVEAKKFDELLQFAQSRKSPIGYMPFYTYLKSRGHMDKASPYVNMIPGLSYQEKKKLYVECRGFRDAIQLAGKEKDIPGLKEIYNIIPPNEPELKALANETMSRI
# UniProt P38959: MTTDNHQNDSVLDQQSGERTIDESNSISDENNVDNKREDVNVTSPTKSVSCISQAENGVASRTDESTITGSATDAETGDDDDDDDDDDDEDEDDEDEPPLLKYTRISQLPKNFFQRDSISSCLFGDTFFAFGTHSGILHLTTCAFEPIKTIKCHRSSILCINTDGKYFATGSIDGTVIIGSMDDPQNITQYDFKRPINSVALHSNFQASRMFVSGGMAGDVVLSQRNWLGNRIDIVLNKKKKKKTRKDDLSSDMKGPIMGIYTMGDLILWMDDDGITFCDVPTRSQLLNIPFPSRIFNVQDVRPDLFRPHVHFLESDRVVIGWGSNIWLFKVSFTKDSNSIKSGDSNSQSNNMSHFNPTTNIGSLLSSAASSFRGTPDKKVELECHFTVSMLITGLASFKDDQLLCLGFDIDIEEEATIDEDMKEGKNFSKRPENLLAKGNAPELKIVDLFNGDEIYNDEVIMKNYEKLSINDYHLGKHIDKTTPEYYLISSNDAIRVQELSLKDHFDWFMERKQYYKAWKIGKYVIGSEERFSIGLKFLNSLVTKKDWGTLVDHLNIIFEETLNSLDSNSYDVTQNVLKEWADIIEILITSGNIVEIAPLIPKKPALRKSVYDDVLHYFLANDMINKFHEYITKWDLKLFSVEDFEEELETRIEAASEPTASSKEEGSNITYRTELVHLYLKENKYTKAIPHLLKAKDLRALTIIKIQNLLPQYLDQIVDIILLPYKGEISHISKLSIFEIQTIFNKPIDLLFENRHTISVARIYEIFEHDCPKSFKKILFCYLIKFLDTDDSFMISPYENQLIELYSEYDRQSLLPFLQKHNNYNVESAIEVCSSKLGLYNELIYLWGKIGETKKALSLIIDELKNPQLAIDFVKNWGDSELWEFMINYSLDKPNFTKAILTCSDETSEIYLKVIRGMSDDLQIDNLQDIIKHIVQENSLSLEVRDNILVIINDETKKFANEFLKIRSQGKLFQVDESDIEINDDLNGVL
# UniProt P20795, residues 440-691: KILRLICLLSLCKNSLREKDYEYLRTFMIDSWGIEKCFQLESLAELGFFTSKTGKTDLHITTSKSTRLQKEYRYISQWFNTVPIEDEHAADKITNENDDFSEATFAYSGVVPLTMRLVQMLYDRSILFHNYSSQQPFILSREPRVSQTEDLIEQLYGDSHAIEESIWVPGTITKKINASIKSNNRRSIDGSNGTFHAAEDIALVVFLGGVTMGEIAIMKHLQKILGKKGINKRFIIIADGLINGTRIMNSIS
# UniProt Q07468: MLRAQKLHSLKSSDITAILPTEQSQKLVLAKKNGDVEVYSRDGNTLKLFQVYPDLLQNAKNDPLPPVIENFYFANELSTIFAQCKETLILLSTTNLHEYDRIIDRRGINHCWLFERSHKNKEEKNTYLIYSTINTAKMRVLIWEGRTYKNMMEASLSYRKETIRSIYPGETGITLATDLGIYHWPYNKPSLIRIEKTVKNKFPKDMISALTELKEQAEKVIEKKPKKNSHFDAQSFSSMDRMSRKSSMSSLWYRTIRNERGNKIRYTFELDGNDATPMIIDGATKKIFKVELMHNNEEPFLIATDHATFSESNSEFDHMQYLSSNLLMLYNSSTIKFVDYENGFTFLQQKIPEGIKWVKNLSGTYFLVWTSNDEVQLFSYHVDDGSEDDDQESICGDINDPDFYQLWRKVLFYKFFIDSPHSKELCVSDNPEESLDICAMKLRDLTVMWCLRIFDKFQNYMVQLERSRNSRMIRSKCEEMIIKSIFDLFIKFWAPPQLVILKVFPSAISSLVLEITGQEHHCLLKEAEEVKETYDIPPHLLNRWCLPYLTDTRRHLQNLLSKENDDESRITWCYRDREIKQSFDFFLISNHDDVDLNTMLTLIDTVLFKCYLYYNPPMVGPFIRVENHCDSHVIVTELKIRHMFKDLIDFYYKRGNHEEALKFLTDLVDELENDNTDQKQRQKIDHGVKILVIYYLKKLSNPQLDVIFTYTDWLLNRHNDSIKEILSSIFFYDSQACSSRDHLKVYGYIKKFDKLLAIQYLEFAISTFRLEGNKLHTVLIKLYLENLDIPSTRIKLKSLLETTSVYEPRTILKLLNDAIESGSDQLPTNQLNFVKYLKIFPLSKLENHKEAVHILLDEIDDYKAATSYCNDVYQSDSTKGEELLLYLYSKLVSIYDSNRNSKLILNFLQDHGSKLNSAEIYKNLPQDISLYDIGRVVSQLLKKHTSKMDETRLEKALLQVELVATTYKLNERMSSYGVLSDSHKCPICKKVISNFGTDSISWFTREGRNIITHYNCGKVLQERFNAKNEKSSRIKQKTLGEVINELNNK
# Legend:
# Vps18 (S. cerevisiae) [1] = biological target: Vps18 (S. cerevisiae) (UniProt P27801); assay: pull-down; three or four subunits co-translated in LTE (20 nM plasmid mixture in all), one of them GFP-tagged; subcomplex isolated on the anti-GFP matrix; SDS-PAGE, fluorescence scan
# Vps11 (S. cerevisiae) [2] = biological target: Vps11 (S. cerevisiae) (UniProt P12868); assay: as above
# Vps11 (S. cerevisiae) [3] = biological target: Vps11 (S. cerevisiae) (UniProt P12868); assay: pull-down; one EGFP-tagged bait subunit and one untagged prey subunit co-translated (10 nM plasmids, 100 µl LTE, 27 °C, 2.5 h) with BODIPY-Lys-tRNA; GFP-Cap (anti-GFP) beads 15 min; washed with 50 mM NaHPO4 pH 8, 300 mM NaCl, 0.1% Triton; SDS-PAGE, fluorescence scan
# Vps11 (S. cerevisiae) [4] = biological target: Vps11 (S. cerevisiae) (UniProt P12868); assay: pull-down; fragments of subunits from linear PCR templates co-translated in LTE with single EGFP-tagged bait subunits; precipitated on the anti-GFP matrix; SDS-PAGE, fluorescence scan
# Vps18 (S. cerevisiae) [5] = biological target: Vps18 (S. cerevisiae) (UniProt P27801); assay: as above
# Vps16 (S. cerevisiae) [6] = biological target: Vps16 (S. cerevisiae) (UniProt Q03308); assay: as above
# Vps41 (S. cerevisiae) [7] = biological target: Vps41 (S. cerevisiae) (UniProt P38959); assay: pull-down; all six HOPS subunits co-translated in LTE, Vps41 N-terminally tagged with GFP, Vps39 as 76-1049; isolated on the anti-GFP matrix; SDS-PAGE, fluorescence scan
# Vps41 (S. cerevisiae) [8] = biological target: Vps41 (S. cerevisiae) (UniProt P38959); assay: pull-down; HOPS subunits expressed one by one in LTE and the lysates mixed; complex isolated by affinity purification; lower yield than co-expression
# Vps16 (S. cerevisiae) [9] = biological target: Vps16 (S. cerevisiae) (UniProt Q03308); assay: pull-down; three or four subunits co-translated in LTE (20 nM plasmid mixture in all), one of them GFP-tagged; subcomplex isolated on the anti-GFP matrix; SDS-PAGE, fluorescence scan
# Vps16 (S. cerevisiae) [10] = biological target: Vps16 (S. cerevisiae) (UniProt Q03308); assay: pull-down; one EGFP-tagged bait subunit and one untagged prey subunit co-translated (10 nM plasmids, 100 µl LTE, 27 °C, 2.5 h) with BODIPY-Lys-tRNA; GFP-Cap (anti-GFP) beads 15 min; washed with 50 mM NaHPO4 pH 8, 300 mM NaCl, 0.1% Triton; SDS-PAGE, fluorescence scan
molecule,measurement,setting,value
Vps11 (from UniProt P12868 1-1029),binding,Vps18 (S. cerevisiae) [1],binds
Vps16 (from UniProt Q03308 1-798),binding,Vps11 (S. cerevisiae) [2],binds
same,binding,Vps18 (S. cerevisiae) [1],binds
same,binding,Vps11 (S. cerevisiae) [3],binds
Vps16(479-798) (from UniProt Q03308 479-798) (domain or fragment),binding,Vps11 (S. cerevisiae) [4],binds
same,binding,Vps18 (S. cerevisiae) [5],binds
Vps18 (from UniProt P27801 1-918),binding,Vps11 (S. cerevisiae) [3],binds
Vps18(733-918) (from UniProt P27801 733-918) (domain or fragment),binding,Vps16 (S. cerevisiae) [6],binds
same,binding,Vps11 (S. cerevisiae) [4],binds
Vps33(440-691) (from UniProt P20795 440-691) (domain or fragment),binding,Vps16 (S. cerevisiae) [6],binds
Vps39 (from UniProt Q07468 1-1049),binding,Vps11 (S. cerevisiae) [3],binds
Vps39(618-1049) (from UniProt Q07468 618-1049) (domain or fragment),binding,Vps11 (S. cerevisiae) [4],binds
truncated version of Vps39 (76-1049AA) (from UniProt Q07468 76-1049) (domain or fragment),binding,Vps41 (S. cerevisiae) [7],binds
same,binding,Vps41 (S. cerevisiae) [8],binds
"Vps3 (protein, UniProt P23643 1-1011, BODIPY-labelled lysines (BODIPY-Lys-tRNA in the translation)) MVKKKTNNDKGKEVKENEGKLDIDSESSPHERENDKKKTEDDSLRATESEETNTHNANPNETVRADKFSQEESRPIEDSPHTDKNTAQESCQPSSAEDNVINTDITSLNEKTSTNDEQEKGLPLKISEGPFTISTLLDNVPSDLIYTCCEAYENHIFLGTTTGDLLHYFELERGNYMLVSQTKFDAESNSKIDKILLLPKVEGALILCDNELVLFILPEFAPRPNTTRLKGISDVVICNFSRSSKAYRIYAFHAEGVRLLKISADSLVLTKAFNFKLIDKACAHEETLMVSKLNSYELINLKSSQVIPLFRISETDEDLEPIITSFNEQSEFLVCSGGGSYDSGAMALVVNHHGDIIKGTIVLKNYPRNVIVEFPYIIAESAFQSVDIYSALPSEKSQLLQSITTSGSDLKISKSDNVFTNTNNSEEFKEKIFNKLRLEPLTHSDNKFRIERERAFVEESYEEKTSLIVYNNLGIHLLVPTPMVLRFTSCEESEIDNIEDQLKKLAKKDLTKFEHIEAKYLMSLLLFLMTLHYDHIEDEVMKKWCDFSDKVDIRILFYMFGWKVYSEIWCFHGLINIVERLKSLKLTNKCENILKMLLMMKNELKKKNKTGLLTNDFDDIMKTIDITLFKLRLEKKETITVDMFERESYDEIIREINLHDDKLPRIELLIEIYKEKGEYLKALNLLREAGDYISLVSFIEENLKKLPEDYIKERIADDLLLTLKQGDENTEECAIKKVLKILDMACINKNDFLNKIPAEETSLKVSFIEQLGVQNSNDSKFLFNYYLAKLREIINQSNIWSILGDFIKEYKDDFAYDKTDITNFIHIKLKHSLQCENFSKYYEKCENLKSENEKDDEFINFTFDEISKIDKEHILTLLFFPNELTNWVSSEELLKIYLSFNDFRSVEKYIGKQNLVAVMKQYLDISSLNYSVELVTNLLQRNFELLDDTDIQLKILETIPSVFPVQTISELLLKVLIKYQEKKEESNLRKCLLKNQISISDELSRNFDSQG",binding,Vps11 (S. cerevisiae) [3],binds
"Vps8(950-1274) (domain or fragment, UniProt P39702 950-1274, BODIPY-labelled lysines (BODIPY-Lys-tRNA in the translation)) TQQKYLDKLFSTPNINNKVDKRLRNLHIELNCKYKSKREMILWLNGTVLSNAESLQILDLLNQDSNFEAAAIIHERLESFNLAVRDLLSFIEQCLNEGKTNISTLLESLRRAFDDCNSAGTEKKSCWILLITFLITLYGKYPSHDERKDLCNKLLQEAFLGLVRSKSSSQKDSGGEFWEIMSSVLEHQDVILMKVQDLKQLLLNVFNTYKLERSLSELIQKIIEDSSQDLVQQYRKFLSEGWSIHTDDCEICGKKIWGAGLDPLLFLAWENVQRHQDMISVDLKTPLVIFKCHHGFHQTCLENLAQKPDEYSCLICQTESNPKIV",binding,Vps16 (S. cerevisiae) [6],binds
same,binding,Vps18 (S. cerevisiae) [5],binds
"Vps8 (protein, UniProt P39702 1-1274, BODIPY-labelled lysines (BODIPY-Lys-tRNA in the translation)) MEQNGLDHDSRSSIDTTINDTQKTFLEFRSYTQLSEKLASSSSYTAPPLNEDGPKGVASAVSQGSESVVSWTTLTHVYSILGAYGGPTCLYPTATYFLMGTSKGCVLIFNYNEHLQTILVPTLSEDPSIHSIRSPVKSIVICSDGTHVAASYETGNICIWNLNVGYRVKPTSEPTNGMTPTPALPAVLHIDDHVNKEITGLDFFGARHTALIVSDRTGKVSLYNGYRRGFWQLVYNSKKILDVNSSKEKLIRSKLSPLISREKISTNLLSVLTTTHFALILLSPHVSLMFQETVEPSVQNSLVVNSSISWTQNCSRVAYSVNNKISVISISSSDFNVQSASHSPEFAESILSIQWIDQLLLGVLTISHQFLVLHPQHDFKILLRLDFLIHDLMIPPNKYFVISRRSFYLLTNYSFKIGKFVSWSDITLRHILKGDYLGALEFIESLLQPYCPLANLLKLDNNTEERTKQLMEPFYNLSLAALRFLIKKDNADYNRVYQLLMVVVRVLQQSSKKLDSIPSLDVFLEQGLEFFELKDNAVYFEVVANIVAQGSVTSISPVLFRSIIDYYAKEENLKVIEDLIIMLNPTTLDVDLAVKLCQKYNLFDLLIYIWNKIFDDYQTPVVDLIYRISNQSEKCVIFNGPQVPPETTIFDYVTYILTGRQYPQNLSISPSDKCSKIQRELSAFIFSGFSIKWPSNSNHKLYICENPEEEPAFPYFHLLLKSNPSRFLAMLNEVFEASLFNDDNDMVASVGEAELVSRQYVIDLLLDAMKDTGNSDNIRVLVAIFIATSISKYPQFIKVSNQALDCVVNTICSSRVQGIYEISQIALESLLPYYHSRTTENFILELKEKNFNKVLFHIYKSENKYASALSLILETKDIEKEYNTDIVSITDYILKKCPPGSLECGKVTEVIETNFDLLLSRIGIEKCVTIFSDFDYNLHQEILEVKNEETQQKYLDKLFSTPNINNKVDKRLRNLHIELNCKYKSKREMILWLNGTVLSNAESLQILDLLNQDSNFEAAAIIHERLESFNLAVRDLLSFIEQCLNEGKTNISTLLESLRRAFDDCNSAGTEKKSCWILLITFLITLYGKYPSHDERKDLCNKLLQEAFLGLVRSKSSSQKDSGGEFWEIMSSVLEHQDVILMKVQDLKQLLLNVFNTYKLERSLSELIQKIIEDSSQDLVQQYRKFLSEGWSIHTDDCEICGKKIWGAGLDPLLFLAWENVQRHQDMISVDLKTPLVIFKCHHGFHQTCLENLAQKPDEYSCLICQTESNPKIV",binding,Vps16 (S. cerevisiae) [9],binds
same,binding,Vps16 (S. cerevisiae) [10],binds
same,binding,Vps11 (S. cerevisiae) [3],binds
